# PubChem BioAssay AID887 (National Center for Advancing Translational Sciences (NCATS), 2007)
# Screen size: about 74,000 compounds; about 1,100 (1.5%) were called active. The inconclusive results got no clear call from the source; some entries with a clear call stand among them for comparison. Calls come from the whole dose curve; as a rule, active = well fitted inhibition curve with a large enough effect; inconclusive = small, poorly fitted or top-dose-only effect; inactive = no such curve, though single readings can be large or run the other way. No potency is given beside an inconclusive call; the fits are too rough.
# Molecular target: Polyunsaturated fatty acid lipoxygenase ALOX15 (Homo sapiens) (UniProt P16050)
# Test: qHTS Assay for Inhibitors of 15-hLO (15-human lipoxygenase); note: nearly all actives have a fitted effect of over 55% in size
# Details: purified 15hLO-1, xylenol orange hydroperoxide absorbance; activity change, negative = inhibition: at 57.1 µM (top of the series) unless noted
# Source text: Assay Overview: NIH Molecular Libraries Screening Centers Network [MLSCN] NIH Chemical Genomics Center [NCGC] MLSCN Grant: MH081283-01A1 PI Name: Holman, T.R., University of California, Santa Cruz Human lipoxygenase 15hLO-1 is a member of the closely related lipoxygenase family of enzymes which catalyze the site-specific oxidation of arachidonic acid to various hormone precursor molecules and as such is a candidate for drug development in a variety of disease areas, such as cancer and inflammation. Inhibition of 15hLO-1 activity was screened by utilizing arachidonic acid as a substrate. The extent of hydroperoxide product formation was measured by a secondary chromogenic reaction in which xylenol orange (XO, Sigma-Aldrich, cat. number 39,818-7) reacts with the ferric ions produced from the reaction between the hydroperoxide and ferrous ions. The Fe(III)-XO complex is characterized with red-shifted absorbance at 560 nm. A purified preparation of human 15hLO-1 was supplied by Professor Ted Holman, University of California, Santa Cruz.
# Assay Protocol: Buffer: 25 mM Hepes pH 7.5, 0.01% Triton X-100. Reagents/Controls: Buffer in columns 3 and 4 as negative control (no enzyme). Substrate solution: 50 uM arachidonic acid (Sigma-Aldrich, St. Louis, MO) final concentration dispensed throughout the plate. Enzyme: 40 nM 15hLO-1 final concentration in columns 1, 2, 5-48. Column 1 is neutral (100% activity). Column 2 contained pin-transferred titration of NDGA (nordihidroguaiaretic acid, Sigma-Aldrich, N 5023, top concentration 10 mM in DMSO, then 1:2 dilution in duplicate). (Dilution factor: 23 nL into 4 uL.) Chromogenic detection reagent (divalent iron/xylenol orange, Fe-XO): 200 uM xylenol orange plus 300 uM ferrous ammonium sulfate prepared freshly in 50 mM sulfuric acid. Assay Steps: Three uL of enzyme were dispensed to 1536-well Greiner black clear bottom plates. Compounds and controls (23 nL) were transferred via Kalypsys PinTool. The plates were incubated for 15 min at room temperature, and then 1 uL of substrate solution was added to start the reaction. After room temperature incubation for 6 minutes, 4 uL of Fe-XO solution was added to each well followed by a short spin (1000 rpm, 15 sec) and the plates were then incubated for 30 min. The absorbance at 405 and 573 nm were measured using ViewLux (Perkin-Elmer) High-throughput CCD imager and absorbance protocol settings. The 573-to-405 absorbance ratio was used to compute reaction progress.
# % is set by controls: 0 for no effect and ±100 for the full control effect; potency is the fitted concentration of half-maximal effect; tags give direction and shape of the fitted curve.
# Chain of UniProt P16050 (P16050 whole entry, looked up): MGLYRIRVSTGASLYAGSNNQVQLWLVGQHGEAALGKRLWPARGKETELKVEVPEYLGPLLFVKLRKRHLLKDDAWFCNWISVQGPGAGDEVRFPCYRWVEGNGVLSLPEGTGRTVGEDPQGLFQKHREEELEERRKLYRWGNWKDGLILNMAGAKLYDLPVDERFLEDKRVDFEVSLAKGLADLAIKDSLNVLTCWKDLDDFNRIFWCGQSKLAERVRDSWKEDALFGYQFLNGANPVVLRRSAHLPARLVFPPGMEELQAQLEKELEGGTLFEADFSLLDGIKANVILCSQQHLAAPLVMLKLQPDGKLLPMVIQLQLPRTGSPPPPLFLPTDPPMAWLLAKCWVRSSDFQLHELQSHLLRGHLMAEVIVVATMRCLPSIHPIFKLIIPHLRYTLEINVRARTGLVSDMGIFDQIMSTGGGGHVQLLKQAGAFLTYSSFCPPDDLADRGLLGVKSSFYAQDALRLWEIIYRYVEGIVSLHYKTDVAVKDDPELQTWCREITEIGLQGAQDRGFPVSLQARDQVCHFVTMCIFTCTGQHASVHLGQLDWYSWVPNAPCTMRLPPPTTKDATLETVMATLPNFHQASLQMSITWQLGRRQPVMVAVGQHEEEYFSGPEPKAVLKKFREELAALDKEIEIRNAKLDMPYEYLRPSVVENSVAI
SMILES,Potency,"activity change, negative = inhibition"
N#Cc1ccccc1OC[C@H](O)CNCCNC(=O)Nc1ccccc1,"inconclusive [inhibitor, single point]",–
Oc1cccc(O)c1O,active: 12.6 µM,–
CS(=O)(=O)N1CCN(c2ccccc2NC(=O)c2ccc(Cl)cc2)CC1,"inconclusive [inhibitor, partial curve]",–
Cc1cnc(CNc2nc(-c3cccc(NS(C)(=O)=O)c3)nc3ccccc23)cn1,inactive,–
CCC1Oc2ccc(Cl)cc2N(CC(=O)O)C1=O (configuration not stated),"inconclusive [inhibitor, single point]",–
Cc1cc2nnc(SC3CCOC3=O)n2c2ccccc12 (configuration not stated),inactive,–
N#CCSc1nc2c(c(C3CC=CCC3)c1C#N)CCC2 (configuration not stated),"inconclusive [inhibitor, partial curve]",–
NS(=O)(=O)c1ccc(NC(=O)Nc2ccccc2F)cc1,–,inactive: 8.9% [at 11.4 µM]
CC(Oc1ccc(-c2ccccc2)cc1)C(=O)N1CCOCC1 (configuration not stated),"inconclusive [inhibitor, single point]",–
Cc1ccsc1CNn1cnnc1SCc1ccccc1F,"inconclusive [inhibitor, single point]",–
COc1ccc(CNc2ccnc(-c3ccccc3C(F)(F)F)n2)c(OC)c1,"inconclusive [inhibitor, single point]",–
Cc1nc2nc(-c3ccco3)[nH]n2c(=O)c1Cc1ccccc1,active: 15.8 µM,–
COC(=O)c1c(NC(=O)c2nc3ccccc3s2)sc2c1CCN(C(C)=O)C2,inactive,–
C[C@@H](C1=C(CCN(C)C)Cc2ccccc21)c1ccccn1,inactive,–
COc1ccc2nc(N3CCCCC3)c(C#N)cc2c1,active: 25.1 µM,–
O=C(O)C1CCC(CNc2c(NC3CCCCC3)c(=O)c2=O)CC1 (configuration not stated),inactive,–
NS(=O)(=O)c1ccc(NC(=O)COC(=O)CSc2n[nH]c(-c3ccccc3)n2)cc1,"inconclusive [inhibitor, single point]",–
CC(=O)N1CCC2(CCCN(c3ccc(-c4ccccc4)cc3)C2)CC1,"inconclusive [inhibitor, single point]",–
c1ccc2c(c1)OCC(c1nnc3sc(-c4cnccn4)nn13)O2 (configuration not stated),"inconclusive [inhibitor, single point]",–
Oc1ccc(Nc2nc(NCC3CCCO3)c3ccccc3n2)cc1 (configuration not stated),"inconclusive [inhibitor, single point]",–
CCOC(=O)COc1ccc(C2NC(C(=O)O)CS2)cc1 (configuration not stated),"inconclusive [inhibitor, partial curve]",–
CCSC1=NC(=O)/C(=C2/C=Cc3ccccc3N2CC)S1,inactive,–
CCOc1ccc(S(=O)(=O)NCc2ccco2)c2ccccc12,"inconclusive [inhibitor, single point]",–
COc1ccc(C(=O)N(Cc2ccco2)Cc2cc3cc(C)ccc3[nH]c2=O)cc1OC,"inconclusive [inhibitor, partial curve]",–

SMILES,Potency,"activity change, negative = inhibition"
CC(C)CSc1nc2c(c(=O)[nH]c(=O)n2C)n1CC(O)COc1cccc2ccccc12 (configuration not stated),"inconclusive [inhibitor, partial curve, poor fit]",–
CCCCOc1ccc(NC2=NC3(CCCCC3)N=C(N)N2)cc1,"inconclusive [inhibitor, single point]",–
CCn1c(N)c(C(N)=O)sc1=S,"inconclusive [inhibitor, single point]",–
CCCCCCCCO,inactive,–
Nc1ccc(N=Nc2ccccc2)c(N)n1,"inconclusive [inhibitor, single point]",–
Nn1c(SCC(=O)Nc2ccc(Oc3ccccc3)cc2)nnc1C1CC1,"inconclusive [inhibitor, partial curve]",–
CCn1c(C(=O)N2CCc3ccccc3C2)cc2sccc21,"inconclusive [inhibitor, single point]",–
O=C(CSc1nc2sc3c(c2c(=O)n1Cc1ccco1)CCC3)N1CCc2ccccc21,inactive,–
COc1ccccc1N1CCN(C[C@@H](C(=O)NC(C)(C)C)c2ccccc2)CC1,active: 15.8 µM,–
CC(=O)NCc1cn2c(C)csc2n1,"inconclusive [inhibitor, single point]",–
O=c1[nH]c(CSc2nc3ccccc3o2)nc2c1cnn2-c1ccccc1,"inconclusive [inhibitor, full curve, poor fit]",–
COc1c(OC)c2occc2c2oc(=O)ccc12,"inconclusive [inhibitor, partial curve, poor fit]",–
Cc1cc(C)cc(C#CC2C=CC(Oc3ccc(C4CCCC4)cc3)C(CO)O2)c1 (configuration not stated),–,inactive: -14.1% [at 11.4 µM]
CN(C)c1nc(Oc2ccc(C(=O)OCC(=O)Nc3ccccc3)cc2)nc(N(C)C)n1,–,inactive: -16.8% [at 11.4 µM]
COc1ccc(-n2c(=O)c(-c3ccc(Cl)cc3)nc3cnc(N(C)C)nc32)cc1,inactive,–
CCCC(=O)NCc1ccc2c(c1)cc(C)n2C,"inconclusive [inhibitor, single point]",–
CCOC(=O)c1c(NC(=O)CN(CC)CC)sc2c1CCN(C(=O)OCC)C2,"inconclusive [inhibitor, single point]",–
Cc1cc(OCC(=O)Nc2ccncc2)ccc1Br,"inconclusive [inhibitor, partial curve]",–
O=C(CSc1nnc(-c2ccco2)n1-c1ccccc1)NCCc1ccccc1,active: 6.31 µM,–
COc1ccc(C(c2c(O)ccc3ccccc23)N2CCOCC2)c(OC)c1 (configuration not stated),"inconclusive [inhibitor, partial curve]",–
Cc1ccc(-c2cc(C(=O)N3CCN(C(=O)c4ccco4)CC3)no2)cc1,inactive,–
O=C(CCN1CCc2ccccc2C1)Nc1ccccc1,"inconclusive [inhibitor, single point]",–
Cn1c(=N)c(S(=O)(=O)c2ccc(F)cc2)cc2c(=O)n3ccccc3nc21,"inconclusive [inhibitor, single point]",–
